Laboratory results as given in PubChem BioAssay AID485294 (National Center for Advancing Translational Sciences (NCATS), 2010).
Screen size: about 370,000 compounds; about 150 (0.041%) were called active. This list was built around the results that the source calls inconclusive (neither active nor inactive); the mix of calls is not that of the screen. Calls come from the whole dose curve; as a rule, active = well fitted inhibition curve with a large enough effect; inconclusive = small, poorly fitted or top-dose-only effect; inactive = flat fitted curve, though single readings scatter. No potency is given beside an inconclusive call; the fits are too rough.

Each molecule was assayed against Beta-lactamase (Escherichia coli (strain K12)) (UniProt P00811) (assay: qHTS Inhibitors of AmpC Beta-Lactamase (assay with detergent)). Conditions: AmpC hydrolysis of nitrocefin, absorbance 480 nm, 0.01% Triton; series mostly up to 114 µM.
UniProt P00811, sequence (P00811 whole entry, looked up): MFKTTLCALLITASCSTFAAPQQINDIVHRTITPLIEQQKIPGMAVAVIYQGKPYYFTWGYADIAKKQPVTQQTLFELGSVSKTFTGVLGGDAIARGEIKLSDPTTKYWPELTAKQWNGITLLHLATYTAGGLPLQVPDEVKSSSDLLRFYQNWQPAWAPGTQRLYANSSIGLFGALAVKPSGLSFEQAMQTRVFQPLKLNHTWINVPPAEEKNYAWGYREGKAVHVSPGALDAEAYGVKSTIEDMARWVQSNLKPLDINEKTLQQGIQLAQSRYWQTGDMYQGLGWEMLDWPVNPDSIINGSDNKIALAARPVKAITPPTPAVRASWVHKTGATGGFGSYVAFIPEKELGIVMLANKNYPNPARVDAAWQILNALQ
How it was run: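 20 mM phosphate pH 7.0 + 0.01% (detergent screen) or 0.0001% Triton X-100; 5.3 nM AmpC reagent; cpd preinc 15 min RT; nitrocefin (800 uM stock) to start; A480 q20 s × 4 min; Activity was normalised to no-enzyme and no-compound control wells.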
Note: nearly all actives have a fitted effect of over 25% in size.
Potency is the fitted concentration of half-maximal effect; tags give direction and shape of the fitted curve.

Structure (SMILES)	Potency
Oc1ccccc1-c1cc(-c2ccccc2)no1	inactive
Cc1ccc(C(=O)NCC(=O)N2CCCN(S(=O)(=O)c3ccc(C)cc3)CC2)cc1	inconclusive [inhibitor, partial curve, poor fit]
CCOc1ccccc1NC(=O)c1cc(-c2ccccn2)nc2ccccc12	inconclusive [inhibitor, full curve, poor fit]
Cc1ccc(Oc2ncccc2C(=O)NCC(=O)O)cc1	inactive
CN(C)c1ccc(/C=C2\SC(N3CCCCC3)=NC2=O)cc1	inactive
CCn1c2ccccc2c2cc(NC(=O)c3cccc([N+](=O)[O-])c3C)ccc21	inactive
O=C(O)CC/C(=N\NC(=O)c1ccccc1Br)c1ccccc1	inconclusive [inhibitor, partial curve]
CCc1ccc(-c2cc(C)no2)cc1S(=O)(=O)NCc1ccco1	inactive
OC(C#CCN1CCOCC1)(c1ccccc1)C1CC1 (configuration not stated)	inactive
COc1ccc(C(=O)Nc2cc([N+](=O)[O-])ccc2N2CCN(C)CC2)cc1	inconclusive [inhibitor, single point]
O=C(COC(=O)c1ccc2ccccc2n1)Nc1ncc(C(F)(F)F)cc1Cl	inconclusive [inhibitor, partial curve, poor fit]
Cc1ccc(C)c(S(=O)(=O)N2CCN(c3nc(CN4CCOCC4)nc4sc(C)c(C)c34)CC2)c1	inconclusive [inhibitor, full curve, poor fit]
CC(C)(C)c1cc(NC(=O)C2CCCO2)no1 (configuration not stated)	inactive
Cc1ccc2nc(SCC(=O)Nc3cc(C)on3)nc(=O)n2c1	inconclusive [inhibitor, single point]
Cc1ccc(S(=O)(=O)N2CCCc3cc(NS(=O)(=O)c4ccc(F)cc4)ccc32)cc1	inactive
CCOC(=O)C1=C(O)C(=O)N(Cc2ccccc2)C1	inconclusive [inhibitor, single point]
CCn1c(=O)cc(OCC(=O)Nc2ccccc2C#N)c2ccccc21	inconclusive [inhibitor, full curve, poor fit]
CCS(=O)(=O)N1CCCC(C(=O)NCc2ccc3c(c2)OCO3)C1 (configuration not stated)	inactive
COc1ccc(NC(=O)Nc2cccc(C)n2)cc1	inactive
COc1ccc(N=C2S/C(=C\c3cc(C)n(C)c3C)C(=O)N2CC(C)C)cc1	inconclusive [inhibitor, partial curve]
Cc1occc1-c1n[nH]c(=S)n1C	inconclusive [inhibitor, full curve, poor fit]

Structure (SMILES)	Potency
O=[N+]([O-])c1ccc(N2CCN(S(=O)(=O)c3ccc(Cl)cc3)CC2)cc1NCC1CCCO1 (configuration not stated)	inconclusive [inhibitor, full curve, poor fit]
COc1cccc(CNC(=O)N2CCN(S(=O)(=O)c3ccc(C)cc3)CC2)c1	inconclusive [inhibitor, full curve, poor fit]
O=C(O)/C=C/C(=O)Nc1ccc(-c2ccccc2)cc1	inactive
CCn1cc(C2=NC(CC(C)C)CO2)c2ccccc21 (configuration not stated)	inactive
CN(C)/C=C/C(=O)c1cnc2n(c1=O)CCS2	inconclusive [inhibitor, full curve, poor fit]
Cc1ccc(N2C(S)=C(C#N)C(=O)NC2c2ccco2)cc1 (configuration not stated)	inconclusive [inhibitor, full curve]
CCOC(=O)CCNC(=O)N1CCCC(Cc2ccccc2)(C(=O)OCC)C1 (configuration not stated)	inconclusive [inhibitor, partial curve, poor fit]
Cc1ccc(C(=O)OCc2cc3ccccc3[nH]c2=O)cc1	inconclusive [inhibitor, partial curve]
Cc1cccc(NCc2ccccc2OCc2ccccc2F)c1	inconclusive [inhibitor, single point]
CC(=O)Nc1ccc(S(=O)(=O)NCCc2c[nH]c3ccc(C)cc23)cc1	inconclusive [inhibitor, partial curve, poor fit]
COc1ccc2nc(NC(=O)CSc3n[nH]c(N)n3)sc2c1	inconclusive [inhibitor, partial curve, poor fit]
CCN(CC(=O)Nc1c(F)cccc1F)C(=O)c1cc([N+](=O)[O-])ccc1N1CCOCC1	inconclusive [inhibitor, full curve, poor fit]
COCC(=O)NCCc1ccc(S(N)(=O)=O)cc1	inconclusive [inhibitor, full curve, poor fit]
CN1CCN(c2nc3c(c(=O)[nH]c(=O)n3C)n2CCCSc2nnnn2-c2ccccc2)CC1	inconclusive [inhibitor, full curve, poor fit]
Cc1cc(Br)ccc1NC(=O)c1sc2ncn(CC(=O)N3CCN(c4ccccn4)CC3)c(=O)c2c1C	inconclusive [inhibitor, partial curve, poor fit]
COc1ccc(C(=O)Nc2ccccc2)cc1S(=O)(=O)NCc1ccco1	inconclusive [inhibitor, full curve, poor fit]
Cc1ccc2nc(C3CCN(C(=O)NCc4ccccc4)CC3)[nH]c2c1	inconclusive [inhibitor, full curve, poor fit]
O=C(Nc1nc(=O)n(C(=O)c2cccc(C(F)(F)F)c2)s1)c1ccccc1	inconclusive [inhibitor, partial curve]
Cc1ccn2c(=O)nc(SCC(=O)NCc3ccccc3Cl)nc2c1	inconclusive [inhibitor, partial curve, poor fit]
O=C1[C@H]2[C@@H](c3ccc(Cl)cc3)N3C(=O)N(c4cccc(F)c4)C(=O)[C@@]3(Cc3ccc(Cl)cc3)[C@H]2C(=O)N1C1CCCCC1	inconclusive [inhibitor, full curve, poor fit]
Cc1cc(C(=O)CN2CC(C)OC(C)C2)c(C)n1-c1ccccc1 (configuration not stated)	inconclusive [inhibitor, full curve]
